# The other results are listed elsewhere or left out.
# Key:
# Assay in all cases: glycan array binding signal (z-score within array); higher = stronger binding
# Settings in all cases: glycan notation: IUPAC condensed, linker removed
# [1] = target: Fuc(a1-3)[GalNAc(b1-4)]GlcNAc
# Outline: (§1)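 Negative Z-scores can be read as non-binding. The Z-score is calculated within each array and then averaged across arrays of one protein sequence at different concentrations or buffers and across linkers. Arrays, 3228 in all, were curated from the Consortium for Functional Glycomics database and kept only where the protein sequence was available.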
# [2] = target: Fuc(a1-4)GlcNAc
# Outline: as §1
# [3] = target: Fuc(b1-3)GlcNAc
# Outline: as §1
# [4] = target: Gal(a1-2)Gal
# Outline: as §1
# [5] = target: Gal(a1-3)Gal
# Outline: as §1
# [6] = target: Gal(a1-3)Gal(b1-3)GlcNAc
# Outline: as §1
# [7] = target: Gal(a1-3)Gal(b1-4)Glc
# Outline: as §1
# [8] = target: Gal(a1-3)Gal(b1-4)GlcNAc
# Outline: as §1
# [9] = target: Gal(a1-3)Gal(b1-4)[Fuc(a1-3)]GlcNAc
# Outline: as §1
# [10] = target: Gal(a1-3)GalNAc
# Outline: as §1
# [11] = target: Gal(a1-3)[Gal(a1-4)]Gal(b1-4)GlcNAc
# Outline: as §1
# [12] = target: Gal(a1-4)Gal(b1-4)Glc
# Outline: as §1
# [13] = target: Gal(a1-4)Gal(b1-4)GlcNAc
# Outline: as §1
# [14] = target: Gal(a1-4)GlcNAc
# Outline: as §1
# [15] = target: Gal(a1-6)Glc
# Outline: as §1
# [16] = target: Gal(b1-2)Gal
# Outline: as §1
# [17] = target: Gal(b1-3)Gal
# Outline: as §1
# [18] = target: Gal(b1-3)Gal(b1-4)GlcNAc
# Outline: as §1
# [19] = target: Gal(b1-3)GalNAc
# Outline: as §1
# [20] = target: Gal(b1-3)GalNAc(b1-3)Gal(a1-4)Gal(b1-4)Glc
# Outline: as §1
# [21] = target: Gal(b1-3)GalNAc(b1-4)Gal(b1-4)Glc
# Outline: as §1
# [22] = target: Gal(b1-3)GalNAc(b1-4)[Neu5Ac(a2-3)]Gal(b1-4)Glc
# Outline: as §1
# [23] = target: Gal(b1-3)GlcNAc
# Outline: as §1
# [24] = target: Gal(b1-3)GlcNAc(b1-3)Gal(b1-3)GlcNAc
# Outline: as §1
# [25] = target: Gal(b1-3)GlcNAc(b1-3)Gal(b1-4)Glc
# Outline: as §1
# [26] = target: Gal(b1-3)GlcNAc(b1-3)Gal(b1-4)GlcNAc
# Outline: as §1
# [27] = target: Gal(b1-3)[Fuc(a1-4)]GlcNAc
# Outline: as §1
# [28] = target: Gal(b1-3)[Fuc(a1-4)]GlcNAc(b1-3)Gal(b1-3)[Fuc(a1-4)]GlcNAc
# Outline: as §1
# [29] = target: Gal(b1-3)[Fuc(a1-4)]GlcNAc(b1-3)Gal(b1-4)GlcNAc
# Outline: as §1
# [30] = target: Gal(b1-3)[Fuc(a1-4)]GlcNAc(b1-3)Gal(b1-4)[Fuc(a1-3)]GlcNAc
# Outline: as §1
# [31] = target: Gal(b1-3)[GlcNAc(b1-6)]GalNAc
# Outline: as §1
# [32] = target: Gal(b1-3)[Neu5Ac(a2-6)]GalNAc
# Outline: as §1
# [33] = target: Gal(b1-3)[Neu5Ac(a2-6)]GlcNAc(b1-6)Gal(b1-4)Glc
# Outline: as §1
# [34] = target: Gal(b1-3)[Neu5Ac(b2-6)]GalNAc
# Outline: as §1
# [35] = target: Gal(b1-4)GalNAc(a1-3)[Fuc(a1-2)]Gal(b1-4)GlcNAc
# Outline: as §1
# [36] = target: Gal(b1-4)GalNAc(b1-3)[Fuc(a1-2)]Gal(b1-4)GlcNAc
# Outline: as §1
# [37] = target: Gal(b1-4)Glc
# Outline: as §1
# [38] = target: Gal(b1-4)Glc6S
# Outline: as §1
# [39] = target: Gal(b1-4)GlcNAc
# Outline: as §1
# [40] = target: Gal(b1-4)GlcNAc(a1-6)Gal(b1-4)GlcNAc
# Outline: as §1
# [41] = target: Gal(b1-4)GlcNAc(b1-2)Man(a1-3)[Gal(b1-4)GlcNAc(b1-2)Man(a1-6)]Man(b1-4)GlcNAc(b1-4)GlcNAc
# Outline: as §1
# [42] = target: Gal(b1-4)GlcNAc(b1-3)Gal(b1-3)GlcNAc
# Outline: as §1
# [43] = target: Gal(b1-4)GlcNAc(b1-3)Gal(b1-4)Glc
# Outline: as §1
# [44] = target: Gal(b1-4)GlcNAc(b1-3)Gal(b1-4)GlcNAc
# Outline: as §1
# [45] = target: Gal(b1-4)GlcNAc(b1-3)Gal(b1-4)GlcNAc(b1-3)Gal(b1-4)GlcNAc
# Outline: as §1
binder,measurement,setting,value
Mannose Binding Protein (Lactobacillus plantarum) (protein) AERSEAALTHVDKDNFLKYFSLNGSATYDAKTGIVTITPNQNNQVGNFSLTSKIDMNKSFTLTGQVNLGSNPNGADGIGFAFHSGNTTDVGNAGGNLGIGGLQDAIGFKLDTWFNSYQAPSSDKNGSEISSTNSNGFGWNGDSANAPYGTFVKTSNQEISTANGSKVQRWWAQDTGESQALSKADIDGNFHDFVVNYDGATRTLTVSYTQASGKVLTWKTTVASSYQAMAMVVSASTGAAKNLQQFKLTSFDFQEAATVNVKYVDTTGHQLAQG,glycan array binding signal (z-score),[1],0.022
same,glycan array binding signal (z-score),[2],-0.963
same,glycan array binding signal (z-score),[3],-0.271
same,glycan array binding signal (z-score),[4],-0.205
same,glycan array binding signal (z-score),[5],-0.442
same,glycan array binding signal (z-score),[6],-0.569
same,glycan array binding signal (z-score),[7],13.6
same,glycan array binding signal (z-score),[8],1.08
same,glycan array binding signal (z-score),[9],0.671
same,glycan array binding signal (z-score),[10],0.219
same,glycan array binding signal (z-score),[11],-0.551
same,glycan array binding signal (z-score),[12],-0.504
same,glycan array binding signal (z-score),[13],-0.346
same,glycan array binding signal (z-score),[14],-0.373
same,glycan array binding signal (z-score),[15],-0.295
same,glycan array binding signal (z-score),[16],0.419
same,glycan array binding signal (z-score),[17],-0.713
same,glycan array binding signal (z-score),[18],-0.955
same,glycan array binding signal (z-score),[19],-0.216
same,glycan array binding signal (z-score),[20],-0.213
same,glycan array binding signal (z-score),[21],-0.497
same,glycan array binding signal (z-score),[22],-0.681
same,glycan array binding signal (z-score),[23],-0.617
same,glycan array binding signal (z-score),[24],-0.897
same,glycan array binding signal (z-score),[25],-0.68
same,glycan array binding signal (z-score),[26],-0.663
same,glycan array binding signal (z-score),[27],-0.474
same,glycan array binding signal (z-score),[28],0.66
same,glycan array binding signal (z-score),[29],-0.125
same,glycan array binding signal (z-score),[30],-0.125
same,glycan array binding signal (z-score),[31],-0.038
same,glycan array binding signal (z-score),[32],0.628
same,glycan array binding signal (z-score),[33],-0.187
same,glycan array binding signal (z-score),[34],0.317
same,glycan array binding signal (z-score),[35],-0.073
same,glycan array binding signal (z-score),[36],0.063
same,glycan array binding signal (z-score),[37],-0.319
same,glycan array binding signal (z-score),[38],1.19
same,glycan array binding signal (z-score),[39],0.17
same,glycan array binding signal (z-score),[40],1.44
same,glycan array binding signal (z-score),[41],-0.037
same,glycan array binding signal (z-score),[42],-0.276
same,glycan array binding signal (z-score),[43],-0.478
same,glycan array binding signal (z-score),[44],-0.526
same,glycan array binding signal (z-score),[45],-0.752

# — the supplement of paper PMC8728848
